# Test results reported in the supplement of paper PMC10600219.
# Where a name gives a salt, the structure may show the parent alone. Whole data set: some 2,800 compounds, median “cell viability relative to vehicle” near 0.98, cut for the lowest 2% near 0.45. Some of the results follow.
# Test system: NCI-H2228 alectinib-DTP
# Test: cell viability relative to vehicle (fraction of vehicle); NCI-H2228 is an ALK-positive lung cancer line and DTP means drug-tolerant persister; higher = less growth inhibition
# Conditions: 100 nM; treatment time 6 days
# Method in brief: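 Parental NCI-H2228 cells and drug-tolerant persister cells (made with 1000 nM of a targeted drug for 13 days) were seeded in 384-well plates. The next day, the 3114-agent TargetMol anti-cancer compound library was added at 100 nM, with DMSO as vehicle. After 6 days, ATP was read with the CellTiter-Glo 3D Cell Viability Assay. Each value is cell viability relative to vehicle-treated cells.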
row,Structure (SMILES),cell viability
1,Cn1cc(/C=C/C(=O)c2cccc(F)c2)cc1/C=C/C(=O)NO,0.84
2,C/C(O)=C(\C#N)C(=O)Nc1ccc(C(F)(F)F)cc1 [Teriflunomide],1
3,CONC(=O)Nc1ccc(-c2sc3c(c2CN(C)Cc2ccccc2)c(=O)n(-c2ccccc2)c(=O)n3Cc2c(F)cccc2F)cc1 [Sufugolix],0.96
4,C[C@@H]1C/C=C/C=C/C=C/C=C/[C@H](O[C@@H]2O[C@H](C)[C@@H](O)[C@H](N)[C@@H]2O)C[C@@H]2O[C@](O)(C[C@@H](O)C[C@H]3O[C@@H]3/C=C/C(=O)O1)C[C@H](O)[C@H]2C(=O)O [Pimaricin],1.27
5,CC1=NN(c2ccc(C)c(C)c2)C(=O)/C1=N\Nc1cccc(-c2cccc(C(=O)O)c2)c1O [Eltrombopag Olamine],1
6,O=c1cc(-c2ccccc2)oc2ccccc12 [Flavone],1.22
7,C/C=C\c1ccc(OC)cc1 [cis-Anethol],1.03
8,CCn1c(=O)c2c(nc(/C=C/c3ccc(OC)c(OC)c3)n2C)n(CC)c1=O [Istradefylline],0.989
9,Cc1cc(C)nc(NS(=O)(=O)c2ccc(N)cc2)n1 [Sulfamethazine sodium salt],0.832
10,CC(C)(O)[C@@H]1CC[C@](C)([C@H]2[C@@H](O)C[C@@]3(C)[C@@H]4C[C@H](O)[C@H]5C(C)(C)[C@@H](O)CC[C@@]56C[C@@]46CC[C@]23C)O1 [Cycloastragenol],0.973
11,O=C(Nc1cnn2ccc(N3CCC[C@@H]3c3cc(F)ccc3F)nc12)N1CC[C@H](O)C1 [Larotrectinib sulfate],1.08
12,CN1CCN2c3ncccc3Cc3ccccc3C2C1 (stereo not drawn) [Mirtazapine],1.21
13,CC(C)[C@H](N)C(=O)OCCOCn1cnc2c(=O)nc(N)[nH]c21 [Valacyclovir hydrochloride],1.05
14,CCC[C@@H]1C[C@@H](C(=O)N[C@@H]([C@H]2O[C@H](SC)[C@H](OP(=O)(O)O)[C@@H](O)[C@H]2O)[C@H](C)Cl)N(C)C1 [Clindamycin phosphate],1.03
15,CC(O)c1cc(C(=O)N[C@@H](C)Cn2ccc(-c3ccc(C#N)c(Cl)c3)n2)n[nH]1 (stereo partly drawn) [Darolutamide],0.989
16,CCCCCCNC(=O)n1cc(F)c(=O)[nH]c1=O [Carmofur],1.09
17,COc1cc2c(NC3CCN(C(C)C)CC3)nc(N3CCC(F)(F)CC3)nc2cc1OCCCN1CCCC1,1.09
18,COc1cccc2c1C(=O)c1c(O)c3c(c(O)c1C2=O)C[C@@](O)(C(=O)CO)C[C@@H]3O[C@H]1C[C@H](N)[C@H](O[C@@H]2CCCCO2)[C@H](C)O1 [Pirarubicin],0.684
